Out of some 48,000 compounds screened, about 550 (1.1%) were called active. Not shown: some 4% with an inconclusive outcome. No stated cut-off is given here; in the data, active means potency below about 15 µM; inconclusive means mostly about 16 µM to 33 µM; inactive means weaker than that. The list shows a part of the results.
target: Lysosomal acid glucosylceramidase (Homo sapiens) (UniProt P04062); experiment: Glucocerebrosidase; conditions: purified enzyme, resorufin glucoside fluorescence (screen aimed at inhibitors), 20 min;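 further: the screen sought inhibitors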
Sequence of UniProt P04062 (P04062 whole entry, looked up): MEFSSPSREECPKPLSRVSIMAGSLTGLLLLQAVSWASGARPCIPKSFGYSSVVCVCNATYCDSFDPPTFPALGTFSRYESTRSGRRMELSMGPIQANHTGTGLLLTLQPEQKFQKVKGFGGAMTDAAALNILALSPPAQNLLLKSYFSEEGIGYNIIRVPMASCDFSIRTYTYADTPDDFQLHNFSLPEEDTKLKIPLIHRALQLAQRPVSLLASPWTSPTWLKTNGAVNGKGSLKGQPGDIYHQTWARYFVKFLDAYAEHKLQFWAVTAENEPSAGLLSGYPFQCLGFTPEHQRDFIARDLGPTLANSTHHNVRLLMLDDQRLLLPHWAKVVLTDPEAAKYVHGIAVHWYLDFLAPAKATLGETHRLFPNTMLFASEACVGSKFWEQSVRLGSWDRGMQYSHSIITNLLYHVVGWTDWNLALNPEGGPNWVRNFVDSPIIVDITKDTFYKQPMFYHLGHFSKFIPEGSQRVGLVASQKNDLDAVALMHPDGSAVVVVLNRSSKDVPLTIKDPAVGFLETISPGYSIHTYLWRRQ
Method in brief: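 Normal human glucocerebrosidase (0.2 nM final) was assayed with resorufin β-D-glucopyranoside (30 uM final) in 50mM citric acid/KH2PO4, 10mM sodium taurocholate, 0.01% tween-20, pH 5.9. Compounds were titrated; fluorescence (Ex 548, Em 600) read after 20 min at RT.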
Potency means the concentration at half of the fitted maximal effect.

Potency, inactive:
Cc1ccc(CCSCC(=O)O)cn1 > 76.9 µM, O=C1CCCC(=NCc2ccco2)C1 > 76.9 µM, CCCCCOC(=O)C1C2C=CC3(CN(c4ccccc4C)C(=O)C13)O2 (stereo unspecified) > 76.9 µM, Cc1c(NC(=O)CSc2nc3c(cnn3-c3ccccc3)c(=O)[nH]2)c(=O)n(-c2ccccc2)n1C > 76.9 µM, C=CCNC(=O)C1CCN(S(C)(=O)=O)CC1 > 76.9 µM, COc1ccc(C2C(C(=O)N3CC(C)CC(C)C3)c3ccccc3C(=O)N2C)cc1 (stereo unspecified) > 76.9 µM, NC(=O)COC(=O)CCCc1c[nH]c2ccccc12 > 76.9 µM, CCN1C(=O)CS/C1=C(\C#N)S(=O)(=O)c1ccccc1 > 76.9 µM, COc1ccc(NC(=O)c2ccc(N(C)S(C)(=O)=O)cc2)cc1OC > 76.9 µM, O=C(NCCc1ccco1)c1nn(Cc2ccccc2)c(=O)c2ccccc12 > 76.9 µM, Cn1nnnc1SCCNCc1cccnc1 > 76.9 µM, O=C(NC1CCCC1)c1ccc(COCC(F)(F)F)o1 > 76.9 µM, Cc1c(NC(=O)c2ccc(COc3ccc4ccccc4c3)o2)c(=O)n(-c2ccccc2)n1C > 76.9 µM, Cc1ccc(S(=O)(=O)c2nc(-c3ccc(F)cc3)oc2SCC(=O)NCC2CCCO2)cc1 (stereo unspecified) > 76.9 µM, O=C1C2CC=CCC2C(=O)N1CC1CCCO1 (stereo unspecified) > 76.9 µM, CS(=O)(=O)c1ccc2nc(NC(=O)C3COc4ccccc4O3)sc2c1 (stereo unspecified) > 76.9 µM, Cn1c(N)c(S(=O)(=O)c2ccc(Br)cc2)c2nc3ccccc3nc21 > 76.9 µM, Cn1c(=O)c2c(nc(NCC3CCCO3)n2C)n(C)c1=O (stereo unspecified) > 76.9 µM, CCC(=O)Nc1c(-c2cccs2)c(=O)c2ccccc2n1C > 76.9 µM, Oc1ccccc1-c1nc(N2CCN(Cc3ccccc3)CC2)c2ccccc2n1 > 76.9 µM, CCN1CCN(C(=O)C(C)N(c2ccc(C)cc2)S(C)(=O)=O)CC1 (stereo unspecified) > 76.9 µM, O=S(=O)(c1ccccc1)N1C2CCC1CC(O)(c1cccnc1)C2 (stereo unspecified) > 76.9 µM, CCOC(=O)c1cccc(Nc2nc(C)cc(C)n2)c1 > 76.9 µM, CCN(CC)CCCN1C(=O)C(O)=C(C(=O)c2sc(C)nc2C)C1c1ccco1 (stereo unspecified) > 76.9 µM, CCn1c(C)nc2cc(-c3nnc(-c4c(-c5ccccc5)noc4C)o3)ccc21 > 76.9 µM, COc1ccc(N2CCN(C(=O)CN(c3ccccc3)S(C)(=O)=O)CC2)cc1 > 76.9 µM, Cc1ccnn2c(-c3ccccc3)c3c(=O)n(C)c(=O)n(C)c3c12 > 76.9 µM, COc1cccc(C2=NOC(C(=O)NC(C)C)C2)c1 (stereo unspecified) > 76.9 µM, O=C(CSc1nccc(=O)[nH]1)Nc1ccc(Br)c(Cl)c1 > 76.9 µM, Cc1ccc(-n2ncc3c(=O)n(CC#N)cnc32)cc1 > 76.9 µM, C=CCn1c(-c2cc(OC)cc(OC)c2)n[nH]c1=S > 76.9 µM, CN1C(=O)c2ccccc2C(C(=O)O)C1c1cccc(F)c1 (stereo unspecified) > 76.9 µM, COC(=O)c1[nH]c2ccccc2c1NC(=O)CCN1CCSCC1 > 76.9 µM, CC1(C)Cc2c(sc3nc(-c4cccs4)n(N)c(=O)c23)CO1 > 76.9 µM, Nc1cc(C2CCCC2)nn1-c1ccccc1 > 76.9 µM, O=C(CSc1nc2ncccc2[nH]1)c1ccc(F)cc1 > 76.9 µM, Cc1ccc(Nc2cc(C)nn2-c2nc(C)cc(=O)[nH]2)cc1 > 76.9 µM, Cc1ccc(S(=O)(=O)N2CCOCC2)cc1C(=O)NCc1ccc(F)cc1 > 76.9 µM, CC12C(=O)N(c3nccs3)C(=O)C1C1C=CC2C1 (stereo unspecified) > 76.9 µM, O=C(OCc1nc2ccccc2s1)c1ccc(Br)s1 > 76.9 µM, O=P1(Nn2cnnc2)C=C(c2ccccc2)OC(c2ccccc2)=C1 > 76.9 µM, O=C(O)CCCC(=O)NCCc1cccc(Cl)c1 > 76.9 µM, COc1ccc2c(c1)C(C)=CC(C)(C)N2C(=O)CNCc1ccc2c(c1)OCO2 > 76.9 µM, C=CCOC(=O)C1=C(C)NC2(O)c3ccccc3C(=O)C12O (stereo unspecified) > 76.9 µM, COc1cc(NC(=O)C2CCCCC2)c(OC)cc1NC(=O)CN1CCCCC1 > 76.9 µM, Cc1cc(CN2CCOCC2)c(O)c(C2(C)CCCCC2)c1 > 76.9 µM, COc1ccc(C(=O)NCCn2ccc3ccccc32)cc1 > 76.9 µM, COc1ccccc1N1CCN(c2nc(C)nc3c2oc2ccccc23)CC1 > 76.9 µM, CCC1=C/C(=C\c2ccc3c(c2)OCO3)C(=O)S1 > 76.9 µM, CCOC(=O)N1CCC(NC(=O)CSCc2nc(-c3cccc(OC)c3)oc2C)CC1 > 76.9 µM, O=C(CCN1CCc2ccccc2C1)c1ccc2c(c1)OCCO2 > 76.9 µM, CC(C)N(Cc1nc(-c2ccccc2)no1)C(=O)C(C)(C)C > 76.9 µM, COc1ccc(N2CCN(C(=O)c3cn(C)c(=O)c4c3c3ccccc3n4C)CC2)cc1 > 76.9 µM, Cc1ccccc1N(CC(=O)NCc1ccc2c(c1)OCO2)C(=O)CCC(=O)Nc1ccccn1 > 76.9 µM, CCOCCCNS(=O)(=O)c1ccc(Br)cc1 > 76.9 µM, Cc1cc(N2C(=O)CC(N3CCN(C(c4ccccc4)c4ccccc4)CC3)C2=O)no1 (stereo unspecified) > 76.9 µM, CCN(CC)C(=O)CSc1nc2ccccc2c(=O)n1CCC(=O)NCc1ccc(F)cc1 > 76.9 µM, Cc1cc(NC(=O)Cn2cnc3c(cnn3C(C)(C)C)c2=O)no1 > 76.9 µM, COC(=O)c1ccc(N2C(=O)CC(NCc3ccccc3)C2=O)cc1 (stereo unspecified) > 76.9 µM, C=CCSc1nnc(Cc2cc(=O)[nH]c(=O)[nH]2)n1-c1cc(C)ccc1C > 76.9 µM, O=C(O)c1cc(-c2ccccc2)nc2ccccc12 > 76.9 µM, O=C(c1cccn2c(=O)c3cc(Cl)ccc3nc12)N1CCOCC1 > 76.9 µM, CCNC(=O)/N=C1/NC(=O)C(C(C)C)O1 (stereo unspecified) > 76.9 µM, CCOc1cc(C(=O)NCc2ccncc2)cc(OCC)c1OCC > 76.9 µM, Nc1c(C(=O)NCC2CCCO2)c2nc3ccccc3nc2n1-c1ccccc1 (stereo unspecified) > 76.9 µM, O=C(CSc1nc(-c2ccccc2)cs1)N1CCN(C(=O)c2ccco2)CC1 > 76.9 µM, Cc1nc(NCc2ccc3c(c2)OCO3)c2oc3ccccc3c2n1 > 76.9 µM, CS(=O)CSc1nc2c(cc1C#N)CCCC2 (stereo unspecified) > 76.9 µM, CN(C(=O)c1cccc(C#N)c1)c1nnc(C2CCCO2)s1 (stereo unspecified) > 76.9 µM, COc1ccc(C2CC(=O)C3=C(C2)Nc2ccccc2N(C(C)=O)C3c2ccco2)cc1 (stereo unspecified) > 76.9 µM, CCOC(=O)N1CCN(c2ccc(S(=O)(=O)N(Cc3ccccc3)Cc3ccccc3)cn2)CC1 > 76.9 µM, Cc1ccc2oc(C(=O)NCc3ccc4c(c3)OCO4)c(C)c2c1, CCCC(C(=O)NC1CCCC1)N(CCCN1CCOCC1)C(=O)c1snc(C(N)=O)c1N (stereo unspecified) > 76.9 µM, CN1C(=O)CSc2ccc(NC(=O)NCc3cccnc3)cc21 > 76.9 µM, CC(C)C(OC(=O)c1cc2occc2n1C)C(=O)NCc1ccc2c(c1)OCO2 (stereo unspecified) > 76.9 µM, c1ccc(-n2ncc3c2ncn2cnnc32)cc1 > 76.9 µM, CC(C)C(=O)Nc1cc(C(F)(F)F)ccc1N1CCOCC1 > 76.9 µM, CCOC(=O)N=S(N)(=O)c1ccccc1 (stereo unspecified) > 76.9 µM, NC(=O)c1c(NC(=O)c2cc3ccccc3o2)sc2c1CCC2 > 76.9 µM, O=C1CCCC2=C1C(c1ccncc1)c1c(nc(SCc3ccccc3)[nH]c1=O)N2 (stereo unspecified) > 76.9 µM, NC(=O)c1ccsc1NC(=O)CN1C(=O)C2CC=CCC2C1=O (stereo unspecified) > 76.9 µM, CCCCCC(=O)Nc1ccc(N2CCN(S(C)(=O)=O)CC2)cc1 > 76.9 µM, N#Cc1c(-c2ccco2)cc(-c2ccccn2)nc1N > 76.9 µM, CN1C(=O)C2(C(C#N)=C(N)Oc3n[nH]c(-c4ccc(Cl)cc4)c32)c2ccccc21 (stereo unspecified) > 76.9 µM, O=C(NCc1nc(-c2ccccc2)no1)c1ccc2c(c1)OCO2 > 76.9 µM, CC(C)CNc1cc(=O)n(C)c(=O)n1C > 76.9 µM, O=C(Nc1ccccc1C(=O)N1CCOCC1)C1COc2ccccc2O1 (stereo unspecified) > 76.9 µM, CC1(c2ccccn2)Nc2ccccc2-c2nc3ccccc3n21 (stereo unspecified) > 76.9 µM, O=C(CN1C(=O)CCS(=O)(=O)c2ccccc21)Nc1ccc2c(c1)OCCO2 > 76.9 µM, CC(C)Oc1ccc(C(CC(=O)O)NC(=O)CSc2ncn[nH]2)cc1 (stereo unspecified) > 76.9 µM, NC(=O)CSc1nnc(-c2ccc(S(=O)(=O)N3CCCC3)cc2)n1Cc1ccco1 > 76.9 µM

Reference: PubChem BioAssay AID360 (National Center for Advancing Translational Sciences (NCATS), 2006)
